Measurements as given in PubChem BioAssay AID1347073 (National Center for Advancing Translational Sciences (NCATS), 2019).
Screen size: about 45,000 compounds; about 200 (0.44%) were called active. Roughly 7% stayed inconclusive and do not appear here. The call rests on the fitted dose curve; in most records, active means well fitted activation curve with a large enough effect; inconclusive means small, poorly fitted or top-dose-only effect; inactive means no such curve, though single readings can be large or run the other way. The list shows a part of the results.

Assay: qHTS of TDP-43 Inhibitors: NCGC Sytravon Library Screen; further: 0% is about no effect; nearly all actives have a fitted effect of over 55% in size
Settings: yeast TDP-43 toxicity rescue, BacTiter-Glo growth, 24 h; series mostly up to 46.1 µM; growth rescue (activation): at the top concentration
How it was run: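 TDP-43-expressing yeast, pregrown in raffinose, seeded at OD600 0.02 in galactose medium with compound for 24 hr at 30 deg C. Growth read by BacTiter-Glo luminescence, so rescue of toxicity appears as activation.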

Row | Structure (SMILES) | growth rescue (activation)
1 | Cc1ccc(S(=O)(=O)CC(=O)Nc2ccccn2)cc1 | inactive: -7.56%
2 | O=C(COC(=O)c1ccc(Cl)nc1)Nc1ccc2ccccc2c1 | inactive: 17.8%
3 | O=C(Cc1ccccc1)N/N=C/c1ccc(-c2ccc([N+](=O)[O-])cc2)o1 | inactive: 13%
4 | O=C(Nc1ccccn1)c1ccc(CN(c2ccccc2)S(=O)(=O)c2ccccc2)cc1 | inactive: 8.57%
5 | COc1ccc(NC(=O)c2ccc(C#CC(C)(C)O)cc2)cc1 | inactive: 29.5%
6 | CCOc1ccc(C(=O)Nc2ccc(N3CCN(S(C)(=O)=O)CC3)cc2)cc1[N+](=O)[O-] | inactive: -0.458%
7 | O=C(CCCOc1ccccc1)N1CCN(S(=O)(=O)c2ccccc2)CC1 | inactive: 24.5%
8 | O=C(COc1ccccc1Cl)c1ccc[nH]1 | inactive: 23.6%
9 | CCN(CC)CCOc1ccccc1OC | inactive: 13%
10 | O=C(CN1CCN(C(=S)NC2CCCC2)CC1)Nc1ccc(Oc2ccccc2)cc1 | inactive: 16.6%
11 | COCCCC1CCN(C(=O)C2CCC(=O)N(C3CCCCCC3)C2)CC1 (configuration not stated) | inactive: -4.17%
12 | CCCNC(=O)C1(C)CCN(CCC(=O)c2ccc(Br)cc2)C1 (configuration not stated) | inactive: 0.788%
13 | CCN(CC)CCOC(=O)c1ccccc1Br | inactive: -3.41%
14 | O=C(CSc1nc2[nH]c(=O)cc(O)c2s1)Nc1cc(Cl)cc(Cl)c1 | inactive: 10.9%
15 | CC(C)CCN1CN(S(=O)(=O)c2cccs2)c2nc3ccccc3nc21 | inactive: -10.1%
16 | CCS(=O)(=O)Nc1cc(OC)c(OC)cc1Cc1nccc2cc(OC)c(OC)cc12 | inactive: -14.9%
17 | COc1ccccc1CNS(=O)(=O)c1cc(C(=O)NCC2CCCO2)c(Cl)cc1Cl (configuration not stated) | inactive: -6.34%
18 | Cc1nnc(NC(=O)C23CC4CC(C)(CC(C)(C4)C2)C3)s1 | inactive: 10.7%
19 | O=C(COc1cccnc1[N+](=O)[O-])NC1CCS(=O)(=O)C1 (configuration not stated) | inactive: -1.84%
20 | O=[N+]([O-])c1ccc(N/N=C\c2cccnc2)nc1 | inactive: -0.32%
21 | COc1cc(C=O)ccc1Oc1ccc(S(=O)(=O)N2CCOCC2)cc1[N+](=O)[O-] | inactive: 8.2%
22 | CCCS(=O)(=O)NC(=O)C1(C)CCCN(C(=O)c2c(-c3ccccc3)noc2C)C1 (configuration not stated) | inactive: -3.27%

Row | Structure (SMILES) | growth rescue (activation)
23 | CCOc1ccc(NC(=O)NC2CCOC(C)(C)C2)cc1 (configuration not stated) | inactive: 25.1%
24 | CCOC(=O)C1(C)CCCCCN1C(=O)c1ccc(C(F)(F)F)nc1C (configuration not stated) | inactive: 5.29%
25 | COc1cccc(C(=O)NC2CCCC2)c1 | inactive: 8.82%
26 | CCCC(=NC(C)CC)C1=C(O)CC(c2ccccc2)CC1=O (configuration not stated) | inactive: -45.7%
27 | Cc1ccc(S(=O)(=O)N2CC(C)N(S(C)(=O)=O)C2)cc1 (configuration not stated) | inactive: 9.49%
28 | CC(=O)N[C@@H](Cc1c[nH]c2ccccc12)C(=O)NC1CCCc2ccccc21 (some centres not stated) | inactive: -4.63%
29 | NS(=O)(=O)c1cc(C(=O)OCC(=O)Nc2ccc3c(c2)OCO3)ccc1Cl | inactive: 15.7%
30 | CC(CCc1ccccc1)NC(=O)Cc1ccccc1 (configuration not stated) | inactive: 31.5%
31 | O=C(NNC1=NCCCCC1)c1cccc([N+](=O)[O-])c1 | inactive: -8.98%
32 | COc1cccc(NC(=O)/C=C/c2ccc([N+](=O)[O-])cc2)c1 | inactive: 14.5%
33 | COc1ccc(CN2C(=O)CCCc3ccccc32)cc1 | inactive: 15.7%
34 | COC(=O)c1sccc1NC(=S)Nc1cc(OC)ccc1OC | inactive: -3.28%
35 | CCc1ccccc1NC(=O)CCNC(=O)Cn1ccc2ccccc2c1=O | inactive: -4.9%
36 | Cc1ccc(/C(N)=N/OC(=O)c2ccc(C)cc2Cl)cc1 | inactive: -80.2%
37 | CC1=NN(C(=O)CCc2ccccc2)C(c2ccccc2)C1 (configuration not stated) | inactive: 18%
38 | COc1cc(NC(=O)COC(=O)/C=C/c2ccccc2Cl)cc(OC)c1 | inactive: 3.51%
39 | CCOc1ccc(N2CC(C(=O)Nc3ccc4c(c3)OCCO4)CC2=O)cc1 (configuration not stated) | inactive: 6.31%
40 | NC(=O)COC(=O)c1cccc(S(=O)(=O)N2CCCCC2)c1 | inactive: 7.35%
41 | CCn1c(SCC(=O)N2CCC(C)CC2)nnc1-c1ccco1 | inactive: -6.11%
42 | O=C(O)CCc1nc2cc3ccccc3cc2[nH]1 | inactive: 1.56%
43 | CSc1nnc(-c2ccccc2N=Cc2c(C)[nH]n(-c3ccccc3)c2=O)c(=O)[nH]1 | inactive: -14.6%
44 | O=C(O)c1c2c(nc3ccccc13)/C(=C/c1c(F)cccc1F)CCC2 | inactive: 3.98%

Row | Structure (SMILES) | growth rescue (activation)
45 | CCNC(=O)NC(=O)C(C)OC(=O)c1ccc(SC)cc1OC (configuration not stated) | inactive: 18.9%
46 | O=c1[nH]c2ccc(S(=O)(=O)NCc3ccccc3)cc2[nH]1 | inactive: 6.44%
47 | COC(=O)CNC(=O)COC(=O)/C=C/c1cccs1 | inactive: 5.86%
48 | CN(C)c1ccc(CNCCC(Cc2ccccc2)c2ccco2)cc1 (configuration not stated) | inactive: 1.36%
49 | Cc1cc(O)c(CN2CCN(c3ccccc3)CC2)c2oc(=O)cc(C)c12 | inactive: -2.84%
50 | COCCn1c(SCC(=O)NNC(=O)c2ccccc2)nc2ccccc2c1=O | inactive: -1.1%
51 | Cc1cc(NC(=O)CSc2cc(C)c3ccccc3n2)no1 | inactive: -0.891%
52 | Cc1cc(OCCCCN2C(=O)NC(C)(C)C2=O)ccc1[N+](=O)[O-] | inactive: -3.53%
53 | O=C(O)CN1C(=O)/C(=C\c2cccc(OC(=O)c3ccco3)c2)SC1=S | inactive: 6.37%
54 | NS(=O)(=O)c1ccc(NC(=O)COC(=O)CCC2CCCC2)cc1 | inactive: 6.71%
55 | O=C(CN(Cc1ccc(F)cc1)C(=O)CCC(=O)Nc1nccs1)NCc1ccc(F)cc1 | inactive: -1.83%
56 | O=C(OCC(=O)N1CCCC1)c1ccc(S(=O)(=O)N2CCOCC2)cc1 | inactive: -5.73%
57 | COc1ccc(NC(=O)c2cccnc2SC)cc1S(=O)(=O)N1CCCCC1 | inactive: 6.86%
58 | CCN(Cc1ccccc1)S(=O)(=O)c1ccc2c(c1)NC(=O)CC(=O)N2 | inactive: -6.24%
59 | Cc1ccc(C(=O)N/N=C\c2ccc(OC(=O)c3cccc(F)c3)cc2)cn1 | inactive: 14.6%
60 | O=C(NC1CCCCC1)C(c1ccncc1)N(C(=O)c1csnn1)c1ccccc1 (configuration not stated) | inactive: 5.8%
61 | COC(=O)c1ccc2c(=O)[nH]c(COC(=O)c3[nH]c(C)c(C(C)=O)c3C)nc2c1 | inactive: 3.82%
62 | CCc1nc(SCC(=O)Nc2ccccc2C(=O)OC)n[nH]1 | inactive: -19.5%
63 | Cc1ccc(NC(=O)NCC(c2ccccc2)N(C)C)cc1 (configuration not stated) | inactive: 11.6%
64 | COc1ccc(N(CC(=O)NCc2ccccc2OC)S(=O)(=O)c2ccccc2[N+](=O)[O-])c(OC)c1 | inactive: 5.25%
65 | COc1ccc(-c2cn[nH]c2-c2ccc(O)cc2O)cc1OC | inactive: 14.8%
66 | CCOC(=O)c1[nH]c(C)c(CN(C(C)=O)c2ccc(OCC)cc2)c1C | inactive: 13%

Row | Structure (SMILES) | growth rescue (activation)
67 | COc1cccc(CNc2nc3cc(-c4ccc(F)cc4)sc3c(=O)n2C)c1OC | inactive: 13%
68 | O=C(C1CCCC1)N1CCN(S(=O)(=O)c2ccc(F)cc2)CC1 | inactive: 3.15%
69 | O=C(CCN1C(=O)/C(=C\c2cccc(Br)c2)SC1=S)NCCCN1CCOCC1 | inactive: -6.75%
70 | CNC(=O)/C(C#N)=C\c1cc(C)n(-c2ccc(N3CCOCC3)cc2)c1C | inactive: -9.83%
71 | CC(=O)Nc1ccc(S(=O)(=O)NC2=NCN(c3cccc([N+](=O)[O-])c3)CN2)cc1 | inactive: 8.43%
72 | COn1c(=O)c(-c2cccc(Br)c2)[n+]([O-])c2ccccc21 | inactive: 11.2%
73 | O=C(O)c1ccc(NC(=O)c2ccc3c(c2)C(=O)N(CC2CCCO2)C3=O)cc1 (configuration not stated) | inactive: 12.5%
74 | COc1ccc(NC(=O)Cn2nc(C(=O)O)c3ccccc3c2=O)cc1S(=O)(=O)N1CCCCC1 | inactive: 10.3%
75 | CN(C)/C=C/C(=O)c1ccccc1OCc1cnc(Cl)s1 | inactive: 11.1%
76 | CNS(=O)(=O)c1ccc(NCC2COc3ccccc3O2)c([N+](=O)[O-])c1 (configuration not stated) | inactive: 20.2%
77 | Cc1cc(C)c(C)c(S(=O)(=O)Nc2ccccc2C(=O)NCCCn2ccnc2)c1C | inactive: -8.2%
78 | CCCCc1c(O)nc(SCC(=O)c2ccccc2)n(-c2ccccc2)c1=O | inactive: 9.64%
79 | O=C1CCCC(=O)N1c1ccc(N2CCN(c3ccccc3)CC2)c([N+](=O)[O-])c1 | inactive: 7.43%
80 | CCOc1ccccc1NC(=O)c1ccc(-n2cncn2)nc1 | inactive: -2.07%
81 | O=C(NC1CCCCCC1)C(=S)N1CCCC1 | inactive: 8.75%
82 | COCCNC(=O)C(c1cccnc1)N(Cc1ccc(C)cc1)C(=O)Cn1nnc2ccccc21 (configuration not stated) | inactive: 6.5%
83 | CCOc1ccc(NC(=O)c2ccc3c(=O)n4c(nc3c2)CCCCC4)cc1 | inactive: -8.95%
84 | COc1ccccc1C(=O)NCC(=O)OC(C)C(=O)NC(=O)NC1CCCCC1 (configuration not stated) | inactive: 4.64%
85 | N/C(=N\OC(=O)c1cccnc1)c1ccc(Cl)cc1Cl | inactive: 13.1%
86 | COc1ccc2cc(C(N)=O)c(=Nc3ccccc3)oc2c1 | inactive: -4.29%
87 | CC(OC(=O)c1ccc(Cl)c(S(=O)(=O)N2CCc3ccccc32)c1)C(=O)Nc1ncc(Cl)cc1Cl (configuration not stated) | inactive: 13.9%
88 | O=C1CC(NC2CCN(C(=O)c3cccc(F)c3)CC2)C(=O)N1 (configuration not stated) | inactive: 15%

Row | Structure (SMILES) | growth rescue (activation)
89 | Cc1ccc(NC(=S)N2CCC(NC(=O)c3ccc(F)cc3)CC2)cc1 | inactive: -1.04%
90 | CCOC(=O)C1(C)CCCN(C(=O)Cc2ccc3ccccc3c2)C1 (configuration not stated) | inactive: 9.56%
91 | CC(C)=CCN1CCN(Cc2cccn2-c2nccs2)CC1CCO (configuration not stated) | inactive: -2.04%
92 | C/C(=N\NC(=O)c1ccc(Cl)cc1)c1ccc(N2CCOCC2)cc1 | inactive: -11.4%
93 | COc1cc(CC(NC(C)=O)C(=O)NC2CCN(C(=O)c3ccc(C)cc3)CC2)cc(OC)c1 (configuration not stated) | inactive: 4.25%
94 | O=S(=O)(NCCCO)c1ccc2c(c1)Cc1cc(S(=O)(=O)NCCCO)ccc1-2 | inactive: -17.6%
95 | Cc1ccc(S(=O)(=O)N2CCN(CC(=O)N/N=C\c3cccnc3)CC2)cc1 | inactive: -11.3%
96 | CCOc1nc(CC(C)C)c2c(c1C#N)CC(C)(C)OC2 | inactive: 14.4%
97 | CCOC(=O)NNC(=O)C1CCC(C)CC1 (configuration not stated) | inactive: -0.323%
98 | CNc1ncc(C(=O)c2ccc(F)cc2)s1 | inactive: 3.2%
99 | CCOc1ccc(N(CC(=O)NCc2ccc(F)cc2)C(=O)CCC(=O)Nc2nccs2)cc1 | inactive: -11.6%
100 | CCC(CC)c1nnc(NC(=O)C2CC(=O)N(CCc3ccc(F)cc3)C2)s1 (configuration not stated) | inactive: 19.6%
101 | Cn1cccc1C(=O)OCC(=O)c1c[nH]c2ccccc12 | inactive: 21.2%
102 | COCCN1Cc2cccc(C(=O)NC(C)CCc3ccco3)c2C1=O (configuration not stated) | inactive: -12.3%
103 | Cc1cc(C)n2nc(SCCOc3ccc(F)cc3)nc2n1 | inactive: 28.9%
104 | Cc1ccc(C)c(NC(=O)COC(=O)c2nn(C)c(=O)c3ccccc23)c1 | inactive: 8.11%
105 | COCCSc1nc(N)c2c3c(sc2n1)CN(C)CC3 | inactive: -19.9%
106 | Nc1ncc(Br)cc1S(=O)(=O)Nc1cc(C(F)(F)F)cc(C(F)(F)F)c1 | inactive: 8.46%
107 | CC1CCC2(CC1)NC(=O)N(CC(=O)Nc1ccccc1-c1ccccc1)C2=O (configuration not stated) | inactive: 13.7%
